Measurements: patent US7563592B2, “Alizarin-based chromogenic substrates, their uses and composition containing same” (Biomerieux, S.A., priority 1999, dated 2009)

How the values were obtained:
Design in all cases: key: —: the sign “−” signifies no coloration
Escherichia coli 115 = assay: Comparison of glucoside substrates in semi-solid Columbia medium (Example 7)
Procedure: (§1) To Columbia base, were added, either: • Alizarin-2-β-D-glucoside at 0.05 g/l plus Ammoniacal iron citrate at 0.05 g/l, • Alizarin-1-β-D-glucoside at 0.05 g/l and 0.1 g/l plus, for both concentrations, Ammoniacal iron citrate at 0.05 g/l, • 6-Chloro-3-indolyl-β-D-glucoside at 0.15 g/l without any Ammoniacal iron citrate.
(§2) Petri dishes were prepared using these four media (20 ml of medium per dish).

Proteus mirabilis 008 = assay: as above
Procedure: as §1, §2

[1] = tested on: Staphylococcus epidermidis 024; assay: as above
Procedure: as §1, §2

[2] = tested on: Bacillus thuringiensis 072; assay: β-glucosidase detection in API strip wells (Example 6)
Procedure: (§3) Into a well of an API (Registered trademark, bioMérieux, France) strip, 3 μl of a mixture of Alizarin-2-β-D-glucoside (0.12 g/l) and Ammoniacal iron citrate (0.05 g/l) were introduced and then dried. A control well containing a final concentration of 0.4 g/l of 6-Chloro-3-indolyl-β-D-glucoside was set up in parallel. Then 50 μl of Columbia base were added to both of these wells which were subsequently inoculated with 100 μl of a bacterial suspension (density=2 McFarland). After 4 and 24 hours of incubation at 37° C., the color generated in the wells was recorded.

Listeria seeligeri 080 = assay: as above; details: 0.4 g/l; 4 H
Procedure: as §3

[3] = tested on: Staphylococcus aureus 062; assay: as above
Procedure: as §3

[4] = 0.05 g/l + iron citrate 0.05 g/l, 18 H
[5] = 0.05 g/l + iron citrate 0.05 g/l, 24 H
[6] = 0.05 g/l + iron citrate 0.05 g/l, 48 H
[7] = 0.1 g/l + iron citrate 0.05 g/l, 18 H
[8] = 0.1 g/l + iron citrate 0.05 g/l, 24 H
[9] = 0.1 g/l + iron citrate 0.05 g/l, 48 H
[10] = 0.15 g/l, no iron citrate, 18 H
[11] = 0.15 g/l, no iron citrate, 24 H
[12] = 0.15 g/l, no iron citrate, 48 H
[13] = 0.12 g/l + iron citrate 0.05 g/l, 4 H

O=C1c2ccccc2C(=O)c2c1ccc(O)c2O[C@@H]1O[C@H](CO)[C@@H](O)[C@H](O)[C@H]1O [1-Alizarin1-β-D-glucoside, Alizarin-1-β-D-glucoside]
—: Color (Escherichia coli 115; [4]) | Intensity (Escherichia coli 115; [4]) | Color (Escherichia coli 115; [5]) | Intensity (Escherichia coli 115; [5]) | Color (Escherichia coli 115; [6]) | Intensity (Escherichia coli 115; [6]) | Color (Escherichia coli 115; [7]) | Intensity (Escherichia coli 115; [7]) | Color (Escherichia coli 115; [8]) | Intensity (Escherichia coli 115; [8]) | Color (Escherichia coli 115; [9]) | Intensity (Escherichia coli 115; [9]) | Color (Proteus mirabilis 008; [4]) | Intensity (Proteus mirabilis 008; [4]) | Color (Proteus mirabilis 008; [5]) | Intensity (Proteus mirabilis 008; [5]) | Color (Proteus mirabilis 008; [6]) | Intensity (Proteus mirabilis 008; [6]) | Color (Proteus mirabilis 008; [7]) | Intensity (Proteus mirabilis 008; [7]) | Color (Proteus mirabilis 008; [8]) | Intensity (Proteus mirabilis 008; [8]) | Color (Proteus mirabilis 008; [9]) | Intensity (Proteus mirabilis 008; [9]) | Color [1, 4] | Intensity [1, 4] | Color [1, 5] | Intensity [1, 5] | Color [1, 6] | Intensity [1, 6] | Color [1, 7] | Intensity [1, 7] | Color [1, 8] | Intensity [1, 8] | Color [1, 9] | Intensity [1, 9]

OC[C@H]1O[C@@H](Oc2c[nH]c3cc(Cl)ccc23)[C@H](O)[C@@H](O)[C@@H]1O [6-Chloro-3-indolyl-β-D-glucoside, reference compound]
—: Color observed ([2]; 0.4 g/l, 4 H) | Color observed ([2]; 0.4 g/l, 24 H) | Color observed (Listeria seeligeri 080) | Color observed ([3]; 0.4 g/l, 4 H) | Color observed ([3]; 0.4 g/l, 24 H) | Color (Escherichia coli 115; [10]) | Intensity (Escherichia coli 115; [10]) | Color (Escherichia coli 115; [11]) | Intensity (Escherichia coli 115; [11]) | Color (Escherichia coli 115; [12]) | Intensity (Escherichia coli 115; [12]) | Color (Proteus mirabilis 008; [10]) | Intensity (Proteus mirabilis 008; [10]) | Color (Proteus mirabilis 008; [11]) | Intensity (Proteus mirabilis 008; [11]) | Color (Proteus mirabilis 008; [12]) | Intensity (Proteus mirabilis 008; [12]) | Color [1, 10] | Intensity [1, 10] | Color [1, 11] | Intensity [1, 11] | Color [1, 12] | Intensity [1, 12]

O=C1c2ccccc2C(=O)c2c1ccc(O[C@@H]1O[C@H](CO)[C@@H](O)[C@H](O)[C@H]1O)c2O [Alizarin-2-β-D-glucoside]
—: Color observed [2, 13] | Color observed [3, 13] | Color observed ([3]; 0.12 g/l + iron citrate 0.05 g/l, 24 H) | Color (Escherichia coli 115; [4]) | Intensity (Escherichia coli 115; [4]) | Color (Escherichia coli 115; [5]) | Intensity (Escherichia coli 115; [5]) | Color (Escherichia coli 115; [6]) | Intensity (Escherichia coli 115; [6]) | Color (Proteus mirabilis 008; [4]) | Intensity (Proteus mirabilis 008; [4]) | Color (Proteus mirabilis 008; [5]) | Intensity (Proteus mirabilis 008; [5]) | Color (Proteus mirabilis 008; [6]) | Intensity (Proteus mirabilis 008; [6]) | Color [1, 4] | Intensity [1, 4] | Color [1, 5] | Intensity [1, 5] | Color [1, 6] | Intensity [1, 6]
